Assay results taken from PubChem BioAssay AID1865 (National Center for Advancing Translational Sciences (NCATS), 2009).
About 540 (0.19%) of roughly 280,000 compounds were called active. Inconclusive results, whose numbers are uncertain, are shown with a selection of clear calls. The call rests on the fitted dose curve; in most records, active means well fitted activation curve with a large enough effect; inconclusive means small, poorly fitted or top-dose-only effect; inactive means flat fitted curve, though single readings scatter. Potencies of inconclusive entries are doubtful fits and often do not repeat.

Experiment: Quantitative High-Throughput Screen for Regulators of Epigenetic Control; further: nearly all actives have a fitted effect of over 60% in size; on GFP activation: % of control where 0% means no effect
Settings: murine LDR cells, GFP reporter derepression, 30 h; GFP activation: at 53.9 µM (top of the series)
Outline: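 Murine LDR cells bearing a silenced CMV-driven GFP reporter were exposed to compound for 30 h at 37 C. After PBS washes, GFP-positive cells (20-120 um objects) counted by laser-scanning microplate cytometry.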
Potency means the concentration at half of the fitted maximal effect; tags describe the fitted curve by direction and shape.

Row | Structure (SMILES) | Potency | GFP activation
1 | CN1CCN(Cc2cc(Cl)c3cccnc3c2OC(=O)c2cccs2)CC1 | active: 3.55 µM | 
2 | CC(C)(C)c1ccc(C(=O)N2CC(=O)Nc3ccc(F)cc3C2c2ccc(F)cc2)cc1 (stereo unspecified) |  | inactive: 5.84%
3 | O=C(Nc1nc2cc3c(cc2s1)OCO3)C1=COCCO1 | inconclusive: 35.5 µM [activator, single point] | 
4 | N#CCCCS(=O)(=O)c1nnnn1-c1ccc(F)cc1Br | inconclusive: 25.1 µM [activator, single point] | 
5 | CCn1c(SCC(=O)c2ccccc2)nc2sc3c(c2c1=O)CCN(C)C3 |  | inactive: -1.25%
6 | Cc1n[nH]c(C)c1S(=O)(=O)NCCc1ccc(Cl)cc1 | inconclusive: 35.5 µM [activator, single point] | 
7 | CCOC(=O)/C(C#N)=C/c1cc2ccc(C)cc2nc1Cl | inconclusive: 17.8 µM [activator, partial curve] | 
8 | N#CC1=C(N)n2c(s/c(=C\c3cccs3)c2=O)=C(C#N)C1c1cccs1 (stereo unspecified) | active: 10 µM | 
9 | CC(C)CCSc1nc2[nH]ncc2c(=O)[nH]1 | inconclusive: 0.141 µM [activator, full curve, poor fit] | 
10 | O=[N+]([O-])/C(C(Cl)=C(Cl)Cl)=C(/Sc1ccccc1)N1CCCCC1 | inconclusive: 25.1 µM [activator, single point] | 
11 | CCCC[n+]1ccn(C2=C([O-])c3ccccc3C(=O)/C2=N\S(=O)(=O)c2ccc(Br)cc2)c1 | inconclusive: 31.6 µM [activator, single point] | 
12 | C=CCc1ccccc1OCC(O)CNC(C)C (stereo unspecified) | inactive | 
13 | CN=c1scc(-c2cccs2)n1/N=C/c1ccc(O)c(O)c1O | inconclusive: 35.5 µM [activator, single point] | 
14 | O=C(NNC(=S)Nc1ccc(F)cc1)c1ccccc1OC(F)F | inconclusive: 35.5 µM [activator, single point] | 
15 | CN(C)c1ccc(/C=C2\C(=O)Nc3ccccc32)cc1 | inconclusive: 35.5 µM [activator, single point] | 
16 | Cc1ccccc1NC(=O)Nc1ccccc1C(N)=O |  | inactive: -3.22%
17 | CCCC(=O)Nc1ccc(C(N)=O)cc1 |  | inactive: 4.05%
18 | Cc1ccc(C)c(C(=O)CSc2nc3cc(C(=O)NC4CCCC4)ccc3c(=O)n2CC2CCCO2)c1 (stereo unspecified) | inconclusive: 31.6 µM [activator, single point] | 
19 | CCOC(=O)CSc1nc2cc(OCC)ccc2cc1C#N | inconclusive: 35.5 µM [activator, single point] | 
20 | COc1ccc(-c2cc(C(=O)N/N=C/c3ccc4c(c3)OCO4)c3ccccc3n2)c(OC)c1 |  | inactive: -1.83%
21 | Cc1ccc(C(=O)CC2(O)C(=O)N(Cc3ccccc3)c3ccc(Br)cc32)cc1 (stereo unspecified) | inconclusive: 22.4 µM [activator, single point] | 
22 | Nc1cccc(Nc2nc(OC(C(F)(F)F)C(F)(F)F)nc(OC(C(F)(F)F)C(F)(F)F)n2)c1 | inconclusive: 35.5 µM [activator, single point] | 
23 | O=C(O)c1ccccc1N/N=C/c1c(Sc2nnnn2-c2ccccc2)nc2ccccn2c1=O | inconclusive: 35.5 µM [activator, single point] | 
24 | O=C1COc2ccc(-c3cc(-c4ccc(F)cc4)c4c(n3)-c3ccccc3OC4)cc2N1 | inconclusive: 6.31 µM [activator, single point] | 

Row | Structure (SMILES) | Potency | GFP activation
25 | O=C(NC(=S)N1CCN(C/C=C/c2ccccc2)CC1)c1cccnc1 |  | inactive: 3.12%
26 | CCCCOC(=O)c1ccc(NC(=O)/C(C#N)=C/c2ccc(C)o2)cc1 | active: 10 µM | 
27 | N#C/C(=C/c1ccc(F)cc1)C(N)=S |  | inactive: 4.55%
28 | Nc1nnc(-c2ccc(F)cc2)s1 |  | inactive: 0%
29 | CCOC(=O)c1c(NC(=O)Cn2c(C)nc3ccccc32)sc2c1CCC2 |  | inactive: 0%
30 | COc1cccc(CNc2nc3ccc(C)cc3n3cnnc23)c1 | inconclusive: 25.1 µM [activator, single point] | 
31 | Cc1cccc(C(=O)Nc2nnc(S(=O)(=O)N3CCCc4ccccc43)s2)c1 | inconclusive: 15.8 µM [activator, single point] | 
32 | O=C(Cn1ccc2cc(S(=O)(=O)N3CCCC3)ccc21)NCc1ccccc1Cl | inconclusive: 25.1 µM [activator, single point] | 
33 | O=C(NCc1ccc(F)cc1)C(=O)NCC(c1ccco1)S(=O)(=O)c1cccs1 (stereo unspecified) |  | inactive: 15.3%
34 | O=C(c1ccccc1)N1CCN(CC2CC=CCC2)CC1 (stereo unspecified) | inconclusive: 0.562 µM [activator, single point] | 
35 | NC(=S)Cc1nc(-c2ccccc2)cs1 | inconclusive: 5.62 µM [activator, single point] | 
36 | O=c1[nH]c2cc(Br)cnc2nc1/C=C(\O)c1ccc(F)cc1 | inconclusive: 3.55 µM [activator, partial curve, poor fit] | 
37 | Cc1sc2ncnc(N=Nc3c(O)[nH]c4ccccc34)c2c1C | inconclusive: 25.1 µM [activator, single point] | 
38 | CCc1ccc(NC2Nc3cc(C)nn3S2)cc1 (stereo unspecified) | inconclusive: 20 µM [activator, single point] | 
39 | CCOC(=O)c1cc2c(=O)n3ccccc3nc2n(Cc2ccccc2Cl)c1=N | inconclusive: 25.1 µM [activator, single point] | 
40 | Cc1nn(Cc2ccccc2)c(Cl)c1/C=C1\NC(=S)NC1=O | inconclusive: 35.5 µM [activator, single point] | 
41 | CN(C)c1nc(=NCc2ccco2)ss1 | inconclusive: 0.631 µM [activator, single point] | 
42 | O=C(Nc1cccc(NC(=O)c2ccc(-c3ccc(Br)cc3)o2)c1)c1ccccc1 | inconclusive: 35.5 µM [activator, single point] | 
43 | Cc1ccc2cc(/C=N/NC(=O)[C@H]3C[C@@H]3c3ccccc3)c(Cl)nc2c1 | inconclusive: 17.8 µM [activator, single point] | 
44 | Nc1ccc2nc(-c3ccccn3)[nH]c2c1 | inconclusive: 35.5 µM [activator, single point] | 
45 | O=C(N/N=C\C=C\c1ccco1)C1COc2ccccc2O1 (stereo unspecified) | inconclusive: 17.8 µM [activator, single point] | 
46 | N#Cc1c(Nc2ccccc2)s[nH]c1=O | inconclusive: 17.8 µM [activator, single point] | 
47 | CCC1Oc2ccc(C)cc2N(CC(=O)N(Cc2ccc(C)o2)C2CCCC2)C1=O (stereo unspecified) | inconclusive: 35.5 µM [activator, single point] | 
48 | COc1cc(OC)c(NC(=O)N2CC=C(c3c[nH]c4ccccc34)CC2)cc1Cl | inconclusive: 31.6 µM [activator, single point] | 

Row | Structure (SMILES) | Potency | GFP activation
49 | Cc1ccc(-c2cc(C(=O)NC3=NCCS3)c3cc(Br)ccc3n2)o1 | inconclusive: 35.5 µM [activator, single point] | 
50 | Cc1cnc(CNc2ncnc3ccc(-c4cccc(C#N)c4)cc23)cn1 | inconclusive: 14.1 µM [activator, single point] | 
51 | CCOC(=O)C1=C(Cc2ccc(F)cc2)C(=O)c2ccccc2C1=O | inconclusive: 31.6 µM [activator, single point] | 
52 | Cc1ccc2nc(N(Cc3cccnc3)C(=O)CCOc3ccccc3)sc2c1 |  | inactive: 7.99%
53 | O=C(CSc1nnc(-c2n[nH]c3ccccc23)n1-c1ccccc1)Nc1cccc(Cl)c1 | inconclusive: 15.8 µM [activator, single point] | 
54 | O=C(CNS(=O)(=O)c1cccc(Cl)c1)Nc1ccc(-c2nc3ccccc3s2)cc1 | inconclusive: 35.5 µM [activator, single point] | 
55 | Cc1c(CN2CCC(CO)(Cc3cccc(C(F)(F)F)c3)CC2)c2ccccc2n1C |  | inactive: -1.52%
56 | O=C(Cc1cccs1)Nc1nnc(SCc2ccc(C(F)(F)F)cc2)s1 |  | inactive: 0%
57 | O=C(Nc1ccccn1)c1cc2cc([N+](=O)[O-])ccc2s1 |  | inactive: -1.11%
58 | O=C1CSC(=S)N1Cc1cccnc1 |  | inactive: 1.9%
59 | O=C(Oc1cccc(-n2cnnn2)c1)C1CCCCC1 | inconclusive: 5.62 µM [activator, single point] | 
60 | CCOC(=O)c1c(NC(=O)COc2ccc(Br)cc2)sc(C(C)=O)c1C |  | inactive: 1.09%
61 | Cc1ccc(Cl)cc1NS(=O)(=O)c1ccc(N2CCCCS2(=O)=O)cc1 |  | inactive: -4.2%
62 | FC(F)(F)c1nc(-c2ccccc2)ncc1-c1nnnn1-c1ccccc1 | inconclusive: 11.2 µM [activator, partial curve] | 
63 | Cc1ncc(CN2CCN(CCc3ccccc3)C(CCO)C2)s1 (stereo unspecified) | inconclusive: 35.5 µM [activator, single point] | 
64 | COc1cccc(C2C3=C(N=c4s/c(=C\c5cccc(O)c5)c(=O)n42)c2ccccc2CC3)c1OC (stereo unspecified) |  | inactive: 3.95%
65 | CCc1ccc(/C=C2\CN(CC)Cc3c2nc2ccccc2c3C(=O)O)cc1 | active: 15.8 µM | 
66 | COC(=O)c1oc2ccc(Cl)cc2c1NC(C)=O |  | inactive: -1.08%
67 | CCOC(=O)c1cc(-c2cc(OC)c(OC)c(OC)c2)nc2c1c(=O)[nH]c(=O)n2Cc1ccccc1 | inconclusive: 22.4 µM [activator, single point] | 
68 | O=C(OCc1cc(=O)n2nc(C3CC3)sc2n1)c1ccc(NC(=O)c2ccccc2F)cc1 | inconclusive: 31.6 µM [activator, single point] | 
69 | CCOC(=O)c1c(/N=C/N(C)C)sc(/C=N/Nc2ccccc2)c1-c1ccccc1 | active: 10 µM | 
70 | COc1ccc(OC)c(/C=C(\C#N)c2nc(-c3ccc(F)cc3)cs2)c1 | inconclusive: 22.4 µM [activator, single point] | 
71 | CCC(=O)N(CC)C1=C(O)c2ccccc2C(=O)C1=O | inconclusive: 35.5 µM [activator, single point] | 
